Measured values: publication PMC3801443
Results are given in words; binding and its absence hold for the method and conditions named. Binding seen in cells or lysates may run through a third protein. Some binding calls cover weakened binding; strength is not graded here. For part of these data: Sequences can lack the tags named with a protein.

Chains of the proteins cited; added tags and fusions are not shown. Residues count along the entry.
UniProt Q62421: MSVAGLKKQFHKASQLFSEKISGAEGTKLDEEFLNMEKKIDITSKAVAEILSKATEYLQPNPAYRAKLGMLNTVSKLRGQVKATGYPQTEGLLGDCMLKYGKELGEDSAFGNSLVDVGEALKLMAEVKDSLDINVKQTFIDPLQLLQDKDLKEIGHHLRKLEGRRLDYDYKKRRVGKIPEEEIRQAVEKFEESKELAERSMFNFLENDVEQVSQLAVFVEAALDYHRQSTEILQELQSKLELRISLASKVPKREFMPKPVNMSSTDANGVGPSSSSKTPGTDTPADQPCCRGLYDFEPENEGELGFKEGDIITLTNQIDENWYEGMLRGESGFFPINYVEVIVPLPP
UniProt Q99962, residues 290-349: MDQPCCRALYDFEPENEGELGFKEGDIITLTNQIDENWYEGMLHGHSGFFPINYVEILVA
UniProt Q99963, residues 285-344: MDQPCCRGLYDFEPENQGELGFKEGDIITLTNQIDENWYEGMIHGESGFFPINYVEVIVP

Columns and labels:
[1] = biological target: Lamellipodin (Lpd), endogenous in HEK293, A431 and HeLa cells (human (endogenous in HEK293, A431, HeLa)) (UniProt Q70E73); assay: co-IP; endogenous proteins, A431 cell lysate; IP with Lpd- or EGFR-specific antibodies or IgG control
[2] = biological target: Lamellipodin (Lpd), endogenous in HEK293, A431 and HeLa cells (human (endogenous in HEK293, A431, HeLa)) (UniProt Q70E73); assay: co-IP; endogenous proteins, HeLa cell lysate; IP with Lpd- or EGFR-specific antibodies or IgG control; cells stimulated with 2 ng/ml EGF for 5 min or not stimulated
[3] = biological target: Lamellipodin (Lpd), endogenous in HEK293, A431 and HeLa cells (human (endogenous in HEK293, A431, HeLa)) (UniProt Q70E73); assay: co-IP; HEK293 cells overexpressing EGFR-GFP; IP of endogenous Lpd with Lpd-specific antibodies or control IgG; EGFR detected with anti-GFP antibodies
[4] = biological target: EGFR, endogenous in A431 and HeLa cells (human (endogenous in A431, HeLa)) (UniProt P00533); assay: co-IP; endogenous proteins, A431 cell lysate; IP with Lpd- or EGFR-specific antibodies or IgG control
[5] = biological target: EGFR, endogenous in A431 and HeLa cells (human (endogenous in A431, HeLa)) (UniProt P00533); assay: co-IP; endogenous proteins, HeLa cell lysate; IP with Lpd- or EGFR-specific antibodies or IgG control; cells stimulated with 2 ng/ml EGF for 5 min or not stimulated
[6] = biological target: endophilin A3, endogenous in NIH/3T3 cells (mouse (endogenous in NIH/3T3)) (UniProt Q62421); assay: co-IP; endogenous proteins, NIH/3T3 cell lysate; IP with Endo3-specific antibodies or control IgG; blot probed with anti-Lpd antibodies
GST-endophilin A1-SH3 = GST-endophilin A1-SH3 (UniProt Q99962); assay: pull-down; purified GST-SH3 domains on glutathione beads, NIH/3T3 cell lysate; lysis buffer 50 mM Tris-HCl pH 7.4, 200 mM NaCl, 1% NP-40, 2 mM MgCl2, 10% glycerol; western blot; only the target purified
GST-endophilin A3-SH3 = GST-endophilin A3-SH3 (UniProt Q99963); assay: as above
GST-endophilin A2-SH3 = biological target: T1, GST-endophilin A2-SH3 (UniProt O35964); assay: as above
T1 sequence: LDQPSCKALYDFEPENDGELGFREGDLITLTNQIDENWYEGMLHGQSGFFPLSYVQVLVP

Molecule | binding (GST-endophilin A1-SH3) | binding (GST-endophilin A3-SH3) | binding (GST-endophilin A2-SH3) | further results
EGFR, endogenous in A431 and HeLa cells (from UniProt P00533 25-1210) (receptor) |  |  |  | binding [1]: binds; binding [2]: binds
EGFR-GFP (from UniProt P00533 25-1210) (receptor) |  |  |  | binding [3]: binds
Lamellipodin (Lpd), endogenous in HEK293, A431 and HeLa cells (from UniProt Q70E73 1-1250) |  |  |  | binding [4]: binds; binding [5]: binds
Lamellipodin (Lpd), endogenous in NIH/3T3 cells (protein, UniProt F2Z3U3 1-1266) MEQLSDEEIDHGAEEDSDKEDQDLDKMFGAWLGELDRLTQSLDSDKPKEPVKRSPLRQETNMANFSYRFSIYNLNEALNQGETVDLDALMADLCSIEQELSSIGSGNSKRQVTEPKVPQKLPAGRHTSKHGTLRGPSSSSNRTTKPSHANYSLDDITAQLEQASLSMDEAAQQSLVEDPKPLVTNQHRRTASAGTVSDAEARSISNSSRSSITSAASSMDSLDIDKVTRPQELDLTTHQGQPITEEEQAAKLKAEKIRVALEKIKEAQVKKLVIRVHMSDDSSKTMMVDERQTVRQVLDNLMDKSHCGYSLDWSLVETISELQMERIFEDHENLVENLLNWTRDSQNKLIFMERIEKYALFKNPQNYLLGKKETAEMADRNKEVLLEECFCGSSVTVPEIEGVLWLKDDGKKSWKKRYFLLRASGIYYVPKGKAKVSRDLVCFLQLDHVNVYYGQDYRNKYKAPTDCCLALKHPQIQKKSQYIKYLCCDDARTLHQWVNGIRIAKYGKQLYTNYQEALKRTESAYDWTSLSSSSIKSGSSSSSIPESQSNHSNQSDSGVSDTLPTGHIRSQSTVSSIFSEAWKRGTQLEESSKARMESMNRSYTSLMPPLSPQTKIITPYTASQPSPPLPPPPPPPPPPPPPPPPPPPPLPSQSAPSSGSAATMFVKYSTITRLQNAAQHSGTLFKSPTPPAMQPLPLASQSKAQIVVPPNGVIPPPPPPPPPPTPGSAMAQLKPVPCAPSLPQFSPQPPPLKIHQVQHLPQTAPPTPPPAPPITATVPPQAPPKPLVTIPPSASTKTVSPVVAQAVPPTPAPPVPPAKKQPVFPVSHIPPTPPVQPTPHPPPTLPKQQSFGVKPPPSPLSPVPSVVKQIASQFPPPPTPPPVDSQPLKSLPASGTPQSPPAVKAKPKWQPSSIPVPSPDFPPPPPESSLVFPPPPPPAPAPAPPPPPPPPPPPPPVPPTASPTPDKGGSPGKKTSKMSSPGGKKPPPTPQRNSSIKSGSCAEHPEPKRPSVDSLVSKFAPPAESGSPSKETPPPPAAPPKPGKLHLSGVNLPGIHQQGIVSAKASVLSGRGKDVVVEFPSPPSDSDFPPPPPEIELPLPPIEIPAVFSGNTSPKVAVVNPQPQLWSKTSVKKAPPPTRPKRNDSTRLTQADISEQPAMTTVVPQVPTSPKSSLSVQPGFLADLNRTLQRKSITRHGSLSSSRMSRAEPTATMDDMALPPPPPELLSDQQKAGFGGSHISGYATLRRGPPPAPPKRDQNTKLSRDW | binds | binds | binds | binding [6]: binds
RIAM, endogenous in NIH/3T3 cells (protein, UniProt Q8R5A3 1-670) MGESNEDIDQMFSTLLGEMDLLTQSLGVDTLPPPDPNPPREEFNYTVGFKDLNESLNALEDQDLDALMADLVADISEAEQRTIQAQKESSQNQDRFALLRASDGQGTASGGYGASAAAIDVSHHEEALPPPPVEPMLDLLPPPPPPPPPELLSKEEEEAKAKADKIKLALEKLKEAKVKKLVVKVHMDDSSTKSLMVDERQLARDVLDNLFEKTHCDCNVDWCLYEIYPELQIERVFEDHENVVEVLSDWTRDTENKVLFLEKEERYAVFKNPQNFYLDNKGKKENKETNEKMNAKNKEYLLEESFCGTSIIVPELEGALYLKEDGKKSWKRRYFLLRASGIYYVPKGKTKTSRDLACFIQFENVNIYYGIQCKMKYKAPTDHCFVLKHPQIQKESQYIKYLCCDDARTLSQWVMGIRIAKYGKTLYDNYQRAVARAGLASRWTNLGTVGTPMPAQPSTVSSGLKTGTSQPNGQMPQAIPSAGPPLQEAQTQIETTKDEKQGLGNHSPGATRENHRPKSSLPPPPPPVRRSSDTCGSPALPSKVKGPGTCTFPHPPENFLPPPPPPPPEEDNSGLLPPPPPPPYLEEPPDFVPPPPPPAAVEDSALPPPPPPPPCLSQEITKSSPLPPKKPLVPPKRQENQGLPGAPGNSEQDFMSDLMKALQKKRGNIP | no binding | no binding | no binding | 
